Reference: PubChem BioAssay AID1346428 (National Center for Advancing Translational Sciences (NCATS), 2018)
About 1,200 (2.5%) of roughly 48,000 compounds were called active. Not shown: some 2% with an inconclusive outcome.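 How the source made its calls: active means activation of at least 60% and not above a set upper limit (about 1 call in 100 departs from these limits); inconclusive means activation of 40% to 60%, or above that upper limit; inactive means activation under 40%.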 The list shows a part of the results.

Target: Probable G-protein coupled receptor 32 (Homo sapiens) (UniProt O75388)
Assay: qHTS for Agonists of Human Resolvin D1 Receptor DRV1; further: 0% is about no effect
Details: CHO-K1 GPR32 beta-arrestin PathHunter luminescence, 90 min; at 76.9 µM; hits give high values; zero percent set by DMSO-only wells
Method in brief: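 Luminescent readout of beta-Gal complementation quantifies ligand-induced beta-arrestin association with GPR32 in CHO-K1 cells; 90 min compound incubation at 37 °C, detection 1 h at room temperature.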

Sequence of UniProt O75388 (O75388 whole entry, looked up): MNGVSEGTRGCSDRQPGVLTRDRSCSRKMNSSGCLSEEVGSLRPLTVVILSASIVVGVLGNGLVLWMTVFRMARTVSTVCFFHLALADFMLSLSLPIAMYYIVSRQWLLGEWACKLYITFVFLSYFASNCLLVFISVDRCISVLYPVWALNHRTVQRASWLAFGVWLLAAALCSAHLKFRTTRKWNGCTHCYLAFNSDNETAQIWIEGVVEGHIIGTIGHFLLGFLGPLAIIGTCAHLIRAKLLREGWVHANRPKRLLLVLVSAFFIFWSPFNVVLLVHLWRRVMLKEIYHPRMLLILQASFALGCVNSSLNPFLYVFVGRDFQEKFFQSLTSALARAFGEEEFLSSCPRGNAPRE

activation, active:
O=C(CCNS(=O)(=O)c1ccc2c(c1)CCN2C(=O)C1CC1)N1CCN(c2ccccc2F)CC1 70.6%

activation, inactive:
COC(=O)c1ccccc1NC(=O)c1cc2nc(-c3ccccc3)cc(-c3ccccc3)n2n1 -0.0595%
Cc1cccc(N2CCN(S(=O)(=O)c3ccc4oc(=O)c5ncn(C)c5c4c3)CC2C)c1 (configuration not stated) -1.87%
COc1ccc(N(C(=O)COc2c(C)cccc2C)S(=O)(=O)c2ccc(Cl)cc2)cc1 -8.81%
COc1ccc(NC(=O)C2(c3cccs3)CCOCC2)cc1Cl -2.21%
CCOC(=O)c1c(C)sc(-c2c(-c3ccc4c(c3)OCCO4)[nH]c3c2c(=O)[nH]c(=O)n3C)c1O -48.5%
Cc1ccc(-c2nnc(Nc3ccc(O)cc3)c3ccccc23)cc1S(=O)(=O)NCc1nc2ccccc2[nH]1 -1.73%
COc1cccc(N2CCN(C(=O)c3c(C)oc4ncnc(N5CCCCC5)c34)CC2)c1 -1.2%
COc1ccc(N2CC3=C(C2=O)C(c2ccc(Br)cc2)NC(=O)N3C)cc1 (configuration not stated) 1.55%
Cc1cc(Nc2sc(C(=O)c3ccc(F)cc3)c(N)c2C(=O)Nc2ccc(F)cc2)ccc1Cl -77%
Cc1ccc(Cl)cc1N1CCN(CCCNc2ncnc3onc(-c4ccc(F)cc4)c23)CC1 14.3%
O=C1CC(=O)Nc2cc(S(=O)(=O)N3CCOc4ccccc43)ccc2N1 -7.35%
CC(C)CN(CCCNC(=O)CN1C(=O)COc2ccc(S(=O)(=O)N3CCCCCC3)cc21)CC(C)C -14.8%
COc1cc(NC(=O)CSc2nc(C)c(C(=O)Nc3ccccc3)c(-c3ccc(OC)c(OC)c3)c2C#N)c(OC)cc1Cl 25%
COc1cccc(-n2c(=O)c3sc4ccccc4c3n(CC(=O)Nc3ccc(F)cc3F)c2=O)c1 2.4%
CC1CCN(C(=O)c2cnn(-c3ccc(Cl)cc3)c2C2CCN(C(=O)OC(C)(C)C)CC2)CC1 -6.09%
Cc1ccc(-c2nc3sccn3c2Nc2ccccc2C)cc1 -27.6%
COc1cccc(CNC(=O)CN2C(=O)CSc3ccc(S(=O)(=O)N(C)C)cc32)c1 -0.997%
CC(C)(C)C1CCc2c(sc(NC(=O)c3cccc(Cl)c3)c2C(N)=O)C1 (configuration not stated) -1.5%
Cc1c(C(=O)OC2CCCC2)[nH]c2c1C(=O)CC(c1ccc(C(C)(C)C)cc1)C2 (configuration not stated) 3.43%
Cc1cc2c(cc3c(SCc4ccc(Cl)cc4)nnc(C)n32)o1 -22.9%
COc1ccc(NC(=O)CSc2oc(-c3ccc(C)cc3)nc2S(=O)(=O)c2ccc(C)cc2)c(OC)c1 8.85%
CCC(=O)Oc1c(Sc2ccc(Cl)cc2)c(C)nn1C(C)(C)C 29.2%
CCN(CCCNC(=O)c1cc2cc3cc(OC)ccc3nc2s1)c1cccc(C)c1 -8.46%
CSCCC(NS(=O)(=O)c1ccc2c(c1)oc(=O)n2C)C(=O)N1CCN(c2cc(Cl)ccc2C)CC1 (configuration not stated) -27.5%
Cc1cccc(N2CCN(C(=O)c3nn(C)c4c3CSc3ccccc3-4)CC2C)c1 (configuration not stated) 1.33%
CCOC(=O)c1ccccc1NC(=O)CSc1nc2ncccc2o1 -6.62%
CCN1CCN(Cc2c(O)ccc3oc(C)c(C(=O)Nc4ccc(OC)c(Cl)c4)c23)CC1 -5.03%
CCc1cccc(NC(=O)CNS(=O)(=O)c2ccc3nc(C)sc3c2)c1 -80.2%
COc1ccc2c(c1)c1c(c(=O)n(-c3cccc(C)c3)c(=O)n1CC(=O)Nc1c(C)cc(C)cc1C)n2C -12.8%
Cc1cn(C)c(CC(=O)NCc2ccc(F)cc2)c1C(=O)O -4.04%
Cc1cc(C)cc(NC(=O)CN2C(=O)COc3ccc(S(=O)(=O)Nc4ccccc4)cc32)c1 -0.182%
CCC(C)NC(=O)c1cn(CC)c2ccc(S(=O)(=O)N3CCCCC3)cc2c1=O (configuration not stated) 6.03%
Cc1ccc(CSC2=Nc3ccccc3C3=NC(CC(=O)NC4CCCCC4)C(=O)N23)c(C)c1 (configuration not stated) -9.38%
Cc1ccc2nc(-c3ccncc3)c(Nc3ccccc3C)n2c1 -27.8%
CC1=C(c2ccc(C)cc2)S(=O)(=O)N=C1N1CCN(c2ccccc2)CC1 -5.76%
Cc1cc(Nc2cccc(C(F)(F)F)c2)ncn1 4.72%
Cc1ccc(C(NC(=O)Cc2cccs2)C(=O)Nc2ccc(C(C)C)cc2)cc1 (configuration not stated) -8.47%
CN(Cc1ccccc1)S(=O)(=O)c1ccc(F)c(C(=O)Nc2ccccc2C(F)(F)F)c1 -22.9%
Cc1cccc(-c2nc3c4ccccc4nc(NCc4ccccc4Cl)n3n2)c1 0.313%
Cc1ccc(NS(=O)(=O)c2ccc3c4c(cccc24)C(=O)N3)c(C)c1 -3.19%
CCn1cc(C(=O)NCc2ccccc2)c(=O)c2cc(S(=O)(=O)N3CCCCC3)ccc21 0.542%
CNS(=O)(=O)c1cn(CC(=O)N2CCN(c3ccc(OC)cc3)CC2)cc1S(=O)(=O)NC -6.22%
O=C(Nc1ccc(N2CCC(N3CCCCC3)CC2)c(C(=O)O)c1)c1ccccc1 25.7%
O=C(COc1ccccc1)N(Cc1cccnc1)c1nc2ccc(Cl)cc2s1 -14.6%
O=C(Nc1ccc2oc(-c3cccnc3)nc2c1)c1ccc(-c2ccc(Cl)cc2)o1 32.9%
Cc1cc2oc(C(=O)Nc3sc4c(c3C(=O)NCC3CCCO3)CCC4)cc(=O)c2cc1C (configuration not stated) -16.5%
CC(=O)Nc1ccc(O)cc1 12.3%
COc1ccc(CNC(=O)CSc2nc3ccsc3c(=O)n2Cc2ccccc2Cl)cc1 4.77%
CCc1ccc(N2C(=O)CC(c3cc(OC)ccc3OC)C3=C2COC3=O)cc1 (configuration not stated) -3.7%
CCOc1ccc(C2CC(=O)n3nc(-c4ccc(C)cc4)nc3S2)cc1 (configuration not stated) -2.48%
Cc1ccc(NC(=O)Cn2ncn3c(cc4ccccc43)c2=O)c(C)c1 -16.5%
COc1ccccc1CNC(=O)Cc1csc2nc(-c3ccc(Cl)cc3)cn12 -4.71%
CCOc1cc(CNC(=O)c2ccc(C)c(NC(=O)c3nsc4ccccc34)c2)ccc1OC -15.5%
CC(NC(=O)c1ccc2c(c1)N(Cc1ccc(Cl)cc1)C(=O)c1ccccc1S2(=O)=O)c1ccccc1 (configuration not stated) -33.8%
CCOc1cc2sc(N3CCC(C(=O)Nc4ccc(C)cc4)CC3)nc2cc1Br -4.63%
CCCCCn1c(=N)c(S(=O)(=O)c2ccccc2)cc2c(=O)n3ccccc3nc21 -7.37%
CCOc1ccc(CCNC(=O)Cn2nc(CC)n3c(cc4sc(CC)cc43)c2=O)cc1OCC -16%
CCn1c(=O)c2cc(C(=O)NC3CCCCCC3)sc2c2ccccc21 -7.98%
COc1ccc(CNC(=O)CN(c2ccccc2OC)S(=O)(=O)c2ccc(C)cc2)cc1 6.29%
CCc1ccc(CSc2nc(-c3ccc(OC)cc3)nc3c2Cc2c(CO)cnc(C)c2O3)cc1 17.4%
O=S(=O)(NCc1ccccc1)c1ccc(-c2cnc(C3CC3)o2)cc1 7.98%
CCOC(=O)c1sc(NC(=O)c2nc3ncccn3n2)c(C(=O)OC)c1C -10.7%
COc1ccccc1CNC(=O)CN1C(=O)CSc2ccc(S(=O)(=O)N(C)C)cc21 21.2%
CCOC(=O)c1c(C)[nH]c(CCC(=O)NCCCN2CCN(c3cc(C)ccc3C)CC2)c1C 5.11%
CCOc1ccc(S(=O)(=O)N2CCN(c3ccc(Cl)c(Cl)c3)CC2)c2ccccc12 -0.707%
CCn1nc(-c2ccccc2)c(-c2ccccc2)c(C(=O)Nc2nc(C)c(C(=O)N(C)C)s2)c1=O -5.86%
CC(=O)OC(COc1ccccc1)Cn1cnc2cc(C)c(C)cc21 (configuration not stated) -12.1%
COc1ccc(NC(=O)CC2C(=O)N(c3ccc(C)cc3)C(=O)N2C2CCCCC2)cc1 (configuration not stated) -0.596%
O=C(CCSCc1ccccc1Cl)N1CCN(c2cccc(Cl)c2)CC1 -27%
CCCn1c(CCC(=O)Nc2cc(Cl)c(OC)cc2OC)nc2cccnc21 -8.11%
Cc1ccc(C)c(NC(=O)CSc2ncc3c(n2)-c2ccc(Cl)cc2N(C)S3(=O)=O)c1 -13.6%
O=C(Cn1c(=O)n(-c2ccccc2Cl)c(=O)c2sc3ccccc3c21)N1CCCC1 7.5%
CCOc1ccc(CNC(=O)c2cnc3sc(N(CC)CC)nn3c2=O)cc1OC -11.6%
CCc1nc2cccnc2n1-c1ccc(CC(=O)Nc2ccc(C)cc2)cc1 1.06%
O=C(O)C1CCC1 -27.5%
Nc1cccc2c1CN(C1CCC(=O)NC1=O)C2=O (configuration not stated) 4.82%
Cc1ccc(NC(=O)CSc2nc3nccnc3c(=O)n2CCc2c[nH]c3ccccc23)cc1 7.21%
CC(C)N(Cc1ccccc1)C(=O)CN1C(=O)COc2ccc(S(=O)(=O)NC3CCCC3)cc21 -39%
Cc1cc(C)cc(NC(=O)CCc2nnc3n(CC(C)C)c(=O)c4ccccc4n23)c1 17.5%
COc1ccc(-n2ccn(Cc3ccccc3Cl)c(=O)c2=O)cc1OC -21.1%
CCN(C(=O)CSc1nc2ccccc2n1CC(=O)Nc1ccccc1C)c1ccccc1 1.34%
